PubChem BioAssay AID1508623 (National Center for Advancing Translational Sciences (NCATS), 2021)
Screen size: about 48,000 compounds; about 450 (0.94%) were called active. The inconclusive results got no clear call from the source; some entries with a clear call stand among them for comparison. The call rests on the fitted dose curve; in most records, active means well fitted inhibition curve with a large enough effect; inconclusive means small, poorly fitted or top-dose-only effect; inactive means no such curve, though single readings can be large or run the other way. Potencies beside an inconclusive call are fits to weak or partial responses and may not hold up.

assay: Primary qHTS for Identification of Small Molecule Inhibitors of Huntingtin Promoter Activity; conditions: HEK293 HTT promoter firefly luciferase reporter (activity 0% = vehicle and -100% = no light), 24 h; activity change, negative = inhibition: at 57.5 µM (top of the series); further: nearly all actives have a fitted effect of over 50% in size
Summary of the method: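 HEK293 cells carrying firefly luciferase reporters were seeded at 2,500 per well in Opti-MEM and cultured for 24 h. They were then treated with compounds at up to 57.5 uM final for 24 h at 37 degrees C before Dual-Glo luminescence readout.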
Potency means the concentration at half of the fitted maximal effect; tags describe the fitted curve by direction and shape.

SMILES	Potency	activity change, negative = inhibition
COc1ccc(CNC(=O)c2cc3c(=O)n(Cc4ccc(OC)cc4)ccc3nc2C)cc1	inconclusive: 8.91 µM [inhibitor, partial curve]	
CCc1cccc(C)c1Nc1c(-c2ccc(N(C)C)cc2)nc2cnccn12	inactive	
CCCOc1ccc(CN2C(=O)C(=O)c3cccc(C)c32)cc1	inconclusive: 39.8 µM [inhibitor, single point]	
CCc1ccc(C(=O)c2cn(CC(=O)Nc3cc(OC)cc(OC)c3)c3ccc(CC)cc3c2=O)cc1	inactive	
COC(=O)c1ccccc1NC(=O)Cn1c(=O)n(-c2ccc(C)cc2)c(=O)c2ccccc21	inconclusive: 4.47 µM [inhibitor, partial curve]	
COc1cc(Nc2nc3c(S(=O)(=O)c4cccc(Cl)c4)nnn3c3ccsc23)cc(OC)c1	inconclusive: 2.82 µM [inhibitor, single point]	
O=C1Nc2ccccc2C1Cc1ccc(Br)cc1 (stereo not given)	inactive	
Cc1ccccc1OCCSc1nc2ccc(NC(=O)c3ccco3)cc2s1	inconclusive: 39.8 µM [inhibitor, single point]	
Oc1c(C(c2ccc(Cl)cc2Cl)N2CCN(Cc3ccccc3)CC2)sc2nc(-c3ccco3)nn12 (stereo not given)	inactive	
COCCNC(=O)CCCn1c(SCc2ccccc2C)nc2c(sc3ccccc32)c1=O	inconclusive: 35.5 µM [inhibitor, partial curve, poor fit]	
CCOc1ccc(C(=O)Nc2ccc(C(=O)OCc3cc(=O)n4c(C)csc4n3)cc2)cc1	inconclusive: 22.4 µM [inhibitor, partial curve, poor fit]	
Cc1ccc(CNC(=O)c2ccc(N3Cc4ccccc4Oc4ncccc43)s2)cc1	inconclusive: 31.6 µM [inhibitor, partial curve]	
COc1ccccc1CNc1ncnc2c1nc1n2CCCC1	inactive	
O=C(O)c1ccc2c(c1)N(Cc1ccc(F)cc1)C(=O)c1ccccc1S2=O (stereo not given)	inconclusive: 28.2 µM [inhibitor, partial curve, poor fit]	
Cc1cc(NC(=O)c2cc(-c3ccc(F)cc3)on2)nn1Cc1ccc(Cl)cc1	inconclusive: 1.78 µM [inhibitor, full curve]	
Cc1ccc2c(CC(=O)Nc3ccc(S(=O)(=O)N4CCCC(C)C4)cc3)coc2c1 (stereo not given)	inconclusive: 22.4 µM [inhibitor, partial curve, poor fit]	
O=C(NCCc1ccccc1)c1ccc2c(c1)CCN2S(=O)(=O)c1ccc(Cl)cc1	inconclusive: 25.1 µM [inhibitor, single point]	
Cc1oc2ncnc(N3CCOCC3)c2c1C(=O)Nc1ccc(Br)cc1F	inactive	
O=C(CSc1nc(=O)n(Cc2ccccn2)c2c1CCC2)Nc1cccc(Cl)c1	inconclusive: 31.6 µM [inhibitor, single point]	
O=C(Nc1ccc(Cl)cc1F)c1cc(S(=O)(=O)NC2CCCCCC2)ccc1F	inconclusive: 31.6 µM [inhibitor, single point]	

SMILES	Potency	activity change, negative = inhibition
Cc1cccc(-c2nc3cc(NC(=O)COc4ccccc4F)ccc3o2)c1	inactive	
COc1ccc(NC(=O)Cn2ccn(-c3ccc(C)c(C)c3)c(=O)c2=O)cc1Cl	inconclusive: 11.2 µM [inhibitor, partial curve, poor fit]	
Clc1ccccc1-c1nnc(SCc2nc(-c3ccccc3)no2)n1-c1ccccc1	inconclusive: 39.8 µM [inhibitor, single point]	
COc1ccc(N2CCN(C(=O)Nc3ccccc3Cl)CC2)cc1	inactive	
COc1ccc(Cn2c(CCC(=O)Nc3ccc(OC)c(Cl)c3)nc3cccnc32)cc1	inconclusive: 31.6 µM [inhibitor, single point]	
COc1ccc(NS(=O)(=O)c2c(C)nc3scc(C)n3c2=O)cc1	inconclusive: 22.4 µM [inhibitor, partial curve, poor fit]	
O=C(Nc1ccc2nc(SCC(=O)N3CCOCC3)sc2c1)c1cccc(F)c1	inactive	
CCOC(=O)N1CCN(S(=O)(=O)N2CCCC(C(=O)NCc3ccc(OC)cc3OC)C2)CC1 (stereo not given)	inconclusive: 39.8 µM [inhibitor, single point]	
COC(=O)c1scc(-c2ccccc2)c1S(=O)(=O)Nc1ccc(C)c(Cl)c1	inconclusive: 39.8 µM [inhibitor, single point]	
Cc1cccc(OCC(=O)N(Cc2ccc(N(C)C)cc2)Cc2ccco2)c1C	inconclusive: 31.6 µM [inhibitor, partial curve, poor fit]	
CCC(=O)N1CCc2cc(Br)cc(S(=O)(=O)N3CCCC(C(=O)Nc4ccc(OC)cc4OC)C3)c21 (stereo not given)	inactive	
COc1cc(N2CCC(N3CCN(C)CC3)CC2)ccc1Nc1ncc(Cl)c(Nc2ccccc2S(=O)(=O)C(C)C)n1	inconclusive: 4.32 µM [inhibitor, full curve, poor fit]	
O=C(NCC1CCCCN1)c1cc(OCC(F)(F)F)ccc1OCC(F)(F)F (stereo not given)	inconclusive: 15.3 µM [inhibitor, partial curve]	
COc1ccccc1CNC(=O)c1ccc(CS(=O)c2ccccc2Cl)o1 (stereo not given)	inconclusive: 39.8 µM [inhibitor, single point]	
COc1ccc(NC(=O)C(=O)NCc2ccco2)c(OC)c1	inconclusive: 2.82 µM [inhibitor, partial curve, poor fit]	
COc1ccc(Nc2c3c(nc4ccc(NC(=O)c5cc(Cl)ccc5OC)cc24)CCCC3)cc1OC	inconclusive: 25.1 µM [inhibitor, single point]	
Cn1c(C(=O)N2CCC(C(=O)N3CCN(c4ccccc4)CC3)CC2)cc2sccc21	inconclusive: 25.1 µM [inhibitor, partial curve, poor fit]	
Cc1ccc(CNC(=O)c2c[nH]n3c(=O)c(Cc4ccc(F)cc4Cl)c(C)nc23)cc1	inconclusive: 25.1 µM [inhibitor, partial curve, poor fit]	
Cc1nnc(N2CCN(c3cccc(C(F)(F)F)c3)CC2)c2c1nnn2Cc1ccccc1	inconclusive: 28.2 µM [inhibitor, partial curve, poor fit]	
Cc1noc2ncnc(NCc3ccc(Cl)cc3)c12	inconclusive: 22.4 µM [inhibitor, partial curve]	

SMILES	Potency	activity change, negative = inhibition
CCOC(=O)c1ccc(N2C(=O)c3n[nH]c(-c4cccs4)c3C2c2ccc(OC)cc2OC)cc1 (stereo not given)	inconclusive: 25.1 µM [inhibitor, partial curve, poor fit]	
CC(=O)O[C@]1(C(C)=O)CC[C@H]2[C@@H]3C=C(Cl)C4=CC(=O)[C@@H]5C[C@H]5[C@]4(C)[C@@H]3CC[C@@]21C	inconclusive: 34.3 µM [inhibitor, single point]	
C[C@@H](O)[C@H]1C(=O)N2C(C(=O)OCOC(=O)C(C)(C)C)=C(SC3CN(C4=NCCS4)C3)[C@H](C)[C@H]12	inactive	
COc1cc(OC)c(C=CS(=O)(=O)Cc2ccc(OC)c(NCC(=O)O)c2)c(OC)c1	inconclusive: 0.273 µM [inhibitor, full curve]	
O=C(Nc1nc2c(s1)CCCC2)c1ccccc1F	inconclusive: 11.2 µM [inhibitor, partial curve, poor fit]	
CCOC(=O)c1c(S(=O)(=O)N2CCN(c3cccc(C(F)(F)F)c3)CC2)c(C)n(C)c1C		inactive: -13.9% [at 11.5 µM]
CCOc1ccc(Cn2c(CNS(=O)(=O)c3ccc(CC)cc3)nc3cccnc32)cc1	inconclusive: 7.08 µM [inhibitor, single point]	
CCOC(=O)N1CCC(NC(=O)c2ccc3c(c2)N(Cc2ccc(Cl)cc2)C(=O)c2ccccc2S3(=O)=O)CC1	inconclusive: 35.5 µM [inhibitor, partial curve, poor fit]	
COc1ccc2c(c1)CC(C(=O)Nc1ccc(OC)cc1OC)CO2 (stereo not given)	inactive	
CCc1ccc(NC(=O)C2CCN(S(=O)(=O)c3c(C)noc3C)CC2)cc1	inconclusive: 28.2 µM [inhibitor, single point]	
O=C(NCc1ccccc1)c1ccc2c(c1)N(Cc1ccc(F)cc1)CCS2	inconclusive: 3.98 µM [inhibitor, full curve]	
COc1ccc(CCNC(=O)CSCc2nc(-c3cccc(C)c3)oc2C)cc1OC	inconclusive: 31.6 µM [inhibitor, single point]	
COc1ccc(Cl)cc1NC(=O)c1sc2nc(-c3ccc(OC)c(OC)c3)ccc2c1N	inconclusive: 31.6 µM [inhibitor, partial curve]	
CC(C)(C)NC(=O)Nc1cccc(Nc2ncc(F)c(NC(C)(C)CO)n2)c1	inconclusive: 24.3 µM [inhibitor, partial curve]	
CCn1ccc2cc(S(=O)(=O)N3CCCN(C(=O)Nc4ccc(C)c(F)c4)CC3)ccc21	inconclusive: 35.5 µM [inhibitor, partial curve, poor fit]	
CCCc1ccc(OCC(=O)Nc2sc3c(c2C(=O)OC)CCCCC3)cc1	inactive	
CCCCOc1ccccc1C(=O)Nc1nonc1-c1ccccc1	inconclusive: 39.8 µM [inhibitor, single point]	
Cc1cccc(N(C)c2nc3ccc(C)cc3n3cnnc23)c1	inactive	
Cc1cccc(-c2nc(CSCC(=O)N3CCN(c4ccccc4)CC3)c(C)o2)c1	inconclusive: 35.5 µM [inhibitor, single point]	
COc1cc([N+](=O)[O-])ccc1NC(=O)N1CCN(c2cc(-c3noc(C)n3)ccc2C)CC1	inconclusive: 39.8 µM [inhibitor, partial curve, poor fit]	
